# Laboratory results published in PubChem BioAssay AID624417 (National Center for Advancing Translational Sciences (NCATS), 2012).
# Among all 410,000 compounds or so, about 6,400 (1.6%) were called active. The inconclusive results got no clear call from the source; some entries with a clear call stand among them for comparison. Calls follow the shape of the dose curve; as a rule, active = well fitted inhibition curve with a large enough effect; inconclusive = small, poorly fitted or top-dose-only effect; inactive = no such curve, though single readings can be large or run the other way. Potencies of inconclusive entries are left out as doubtful fits.
# Molecular target: Glucagon-like peptide 1 receptor (Homo sapiens) (UniProt P43220)
# UniProt P43220, sequence (P43220 whole entry, looked up): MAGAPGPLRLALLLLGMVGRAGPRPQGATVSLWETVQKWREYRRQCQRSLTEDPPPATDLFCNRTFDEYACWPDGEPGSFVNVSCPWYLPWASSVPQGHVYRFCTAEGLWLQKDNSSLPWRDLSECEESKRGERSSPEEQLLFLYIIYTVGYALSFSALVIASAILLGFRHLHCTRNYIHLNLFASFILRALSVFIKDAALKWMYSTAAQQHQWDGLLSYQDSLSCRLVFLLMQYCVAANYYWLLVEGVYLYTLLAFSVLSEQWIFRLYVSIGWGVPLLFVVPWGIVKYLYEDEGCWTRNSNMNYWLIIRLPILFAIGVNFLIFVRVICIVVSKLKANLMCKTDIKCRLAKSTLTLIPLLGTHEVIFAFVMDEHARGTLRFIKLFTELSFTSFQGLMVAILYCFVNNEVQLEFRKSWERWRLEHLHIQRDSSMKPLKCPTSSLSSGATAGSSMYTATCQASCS
# Assay: qHTS of GLP-1 Receptor Inverse Agonists (Inhibition Mode); also: nearly all actives have a fitted effect of over 55% in size
# Details: HEK293 GLP-1R CRE-luciferase, luminescence, 24 h, GLP-1R form is constitutively active; activity change, negative = inhibition: at 38.3 µM (top of the series) unless noted
# Outline: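 HEK293 cells stably co-expressing constitutively active GLP-1R and a cAMP-responsive luciferase reporter were seeded in DMEM with 10% Nu serum, given compounds after 12 h, and incubated 24 h at 37 deg C. Luminescence was then read.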
# % is scaled to controls: 0 for no effect and ±100 for the full control effect; potency is read from the fitted curve at half-maximal effect; tags tell the direction and shape of the fitted curve.
SMILES,Potency,"activity change, negative = inhibition"
O=C1C(O)=CC(=C(c2ccccc2)c2ccccc2)c2ccccc21,"inconclusive [inhibitor, partial curve, poor fit]",
O=C1CN(C(=O)c2cccc(S(=O)(=O)N3CCCC3)c2)c2ccccc2N1,,inactive: 3.07%
CCc1c(C)sc(NC(=S)N2CCN(CC)CC2)c1C(=O)OC,"inconclusive [inhibitor, partial curve]",
CCOC(=O)c1c(C(F)(F)F)nc2ncccn12,,inactive: 5.38%
O=C(OCCN1CCCCC1)c1ccccc1Cl,,inactive: 0.827%
Cc1ccc(S(=O)(=O)N2C[C@H]3C(=O)C[C@@H](c4ccc(Cl)cc4)N(S(=O)(=O)c4ccccc4C)[C@H]3C[C@H]2c2cccc(Cl)c2)cc1,"inconclusive [inhibitor, single point]",
COC(=O)c1ccc(NC(=O)CCN2CCCCC2)cc1,inactive,
CCOc1ccc(NC(=O)CN(C)CC(=O)Nc2ccc(Br)cc2F)cc1OCC,"inconclusive [inhibitor, partial curve, poor fit]",
O=[N+]([O-])c1cc(Cl)cc(/C=N/NC(=S)Nc2cc(S(=O)(=O)N3CCOCC3)ccc2Cl)c1O,"inconclusive [inhibitor, full curve, poor fit]",
Cc1ccc(S(=O)(=O)Oc2ccccc2/C=N/NC(=O)c2nn(C)cc2[N+](=O)[O-])cc1,"inconclusive [inhibitor, single point]",
Cc1cccc(/C=C/C(=O)c2ccc(NC3=NCCCS3)cc2)c1,"inconclusive [inhibitor, single point]",
O=C(NC1CCCC1)C(c1ccco1)N(C(=O)c1ccco1)c1ccc(F)cc1 (stereo not drawn),"inconclusive [inhibitor, partial curve]",
O=C(NCCNC(=O)c1ccco1)c1ccco1,,inactive: 12.5%
CCCCNc1ccccc1C(=O)OCC(=O)Nc1ccc(S(N)(=O)=O)cc1,,inactive: -24.7%
Cc1cccc(N2CCN(C(=O)NCc3ccc(Cl)cc3)CC2)c1,"inconclusive [inhibitor, single point]",
O=C(CSc1n[nH]c(-c2ccc(F)cc2)n1)N1CCN(c2ccc(F)cc2)CC1,,inactive: 0.405%
CC(C)(C)OC(=O)N[C@H](C(=O)OC(C)(C)C)c1ccccc1,"inconclusive [inhibitor, single point]",
COc1ccccc1N1CCN(CC(O)COc2ccc(Cl)c(C)c2)CC1 (stereo not drawn),"inconclusive [inhibitor, partial curve, poor fit]",
Cc1c(C(=O)NC(=S)Nc2ccc(NC(=O)c3cccs3)cc2)cccc1[N+](=O)[O-],"inconclusive [inhibitor, partial curve, poor fit]",
Cc1ccc(NC(=O)c2ccc(S(=O)(=O)NCc3cccnc3)cc2)cc1C,"inconclusive [inhibitor, single point]",
CCCCNC(=S)Nc1ccc(C(F)(F)F)cc1,"inconclusive [inhibitor, partial curve, poor fit]",

SMILES,Potency,"activity change, negative = inhibition"
COc1ccc(NC(=O)N2CCCC(C(=O)Nc3cccc(C)c3C)C2)cc1 (stereo not drawn),"inconclusive [inhibitor, partial curve, poor fit]",
Cc1nn(Cc2ccccc2)c(N)c1-c1ccccc1,"inconclusive [inhibitor, partial curve]",
COc1ccc(C2=NC(c3ccccc3)=Nc3ccc(C)cc3N2)cc1,"inconclusive [inhibitor, single point]",
Cc1oc(-c2ccc(Cl)cc2)nc1CS(=O)CC(=O)NC1CCCCCC1 (stereo not drawn),"inconclusive [inhibitor, partial curve, poor fit]",
CCOc1ccccc1NC(=O)c1nnn(CC(=O)Nc2ccc3c(c2)OCO3)c1N,,inactive: -26.8%
Cc1ccc(NC(=O)COc2cccc(C)c2C)cc1S(=O)(=O)N1CCCCCC1,"inconclusive [inhibitor, partial curve, poor fit]",
CCC(=O)OC1(C(=O)CCl)[C@@H](C)C[C@H]2[C@@H]3CCC4=CC(=O)C=C[C@]4(C)[C@@]3(F)[C@@H](O)C[C@@]21C (stereo partly drawn),"inconclusive [inhibitor, full curve, poor fit]",
CC(NC(=O)C12CC3CC(CC(C3)C1)C2)C(=O)N/N=C/C1=C(N2CCOCC2)C(=C\c2ccccc2)/CC1 (stereo not drawn),"inconclusive [inhibitor, partial curve, poor fit]",
CCOC(=O)c1c(-c2ccc(OC)cc2)csc1/N=C/C1=C(O)CCCC1=O,"inconclusive [inhibitor, single point]",
O=c1c2ccccc2c2ccccc2c(=O)n1CC1CCCO1 (stereo not drawn),"inconclusive [inhibitor, partial curve, poor fit]",
Cc1ccccc1CNC(=O)Cn1c(=O)c2cccn2c2cccnc21,,inactive: -16.2%
Cc1c(C(=O)c2ccc(Cl)cc2Cl)cnc2cc3c(cc12)OCO3,"inconclusive [inhibitor, single point]",
CN1OC[C@@H]2CN(S(=O)(=O)c3cccc4ccccc34)[C@H](c3ccc(-c4ccccc4)cc3)C[C@@H]21,"inconclusive [inhibitor, single point]",
O=[N+]([O-])c1ccc(N2CCCCCC2)c([N+](=O)[O-])c1,"inconclusive [inhibitor, single point]",
CC1(C)Cc2cccc(OCC(=O)NCc3cccs3)c2O1,"inconclusive [inhibitor, partial curve, poor fit]",
COc1cc(CNCc2ccccn2)ccc1OCc1ccc(Cl)cc1,"inconclusive [inhibitor, single point]",
O=C(NCCN1CCOCC1)c1cc(-c2cccc(O)c2)on1,,inactive: 20.3%
CCCOc1ccc(C2c3c(oc4ccccc4c3=O)C(=O)N2c2nnc(C(C)C)s2)cc1 (stereo not drawn),,inactive: 2.27%
Cc1cc(Cl)ccc1C(O)c1ncc(-c2cccc(F)c2)[nH]1 (stereo not drawn),"inconclusive [inhibitor, single point]",
CN(Cc1cccs1)C(=O)c1ccc(Cl)c(S(=O)(=O)N2CCCCCC2)c1,"inconclusive [inhibitor, partial curve, poor fit]",
COc1ccc(C2(CNC(=O)c3cc([N+](=O)[O-])cc([N+](=O)[O-])c3)CCCC2)cc1OC,"inconclusive [inhibitor, single point]",

SMILES,Potency,"activity change, negative = inhibition"
c1ccn2c(SCc3ccc4c(c3)OCCO4)nnc2c1,"inconclusive [inhibitor, partial curve, poor fit]",
CCN(CC)c1ccc(/C=N/N(c2ccccc2)c2ccccc2)c(O)c1,active: 6.31 µM,
CCCCN(C(=O)c1ccccc1Br)C(c1ccc(OC)cc1)c1nc2ccccc2[nH]1 (stereo not drawn),"inconclusive [inhibitor, partial curve, poor fit]",
COc1ccc(CNC(=O)/C=C/c2ccc(OCCCF)cc2)cc1,"inconclusive [inhibitor, single point]",
CC1CN(C(=O)Cn2c(C(F)(F)F)nc3ccccc32)CC(C)O1 (stereo not drawn),,inactive: -3.09%
COc1ccc(OCC(=O)N2CCC3(CC2)CC(=O)c2ccccc2O3)cc1,"inconclusive [inhibitor, single point]",
Cc1cccc(NC(=O)COc2cccc3c2CCN(Cc2ccccc2)C3=O)c1C,"inconclusive [inhibitor, partial curve, poor fit]",
CCn1c(SCC(=O)Nc2cc(C)ccc2F)nnc1-c1ccccc1O,"inconclusive [inhibitor, partial curve, poor fit]",
Clc1ccc(C(Cn2ccnc2)OCc2c(Cl)cccc2Cl)c(Cl)c1 (stereo not drawn),"inconclusive [inhibitor, single point]",
CN1/C(=C\C(=O)c2cccs2)C(C)(C)c2ccccc21,"inconclusive [inhibitor, partial curve]",
Cc1cccc2c1-c1sc(C(=O)NCCCN3CCc4ccccc4C3)cc1CO2,"inconclusive [inhibitor, partial curve, poor fit]",
CCN(c1ccc(OC)cc1)S(=O)(=O)c1ccc2[nH]c3c(c2c1)CCCCC3,"inconclusive [inhibitor, partial curve, poor fit]",
COC(=O)c1ccc(NC(=O)Cn2c(=O)oc3ccccc32)cc1,,inactive: 6.05%
COc1ccc(C(O)(c2ccccc2)C(C(=O)O)c2ccccc2)cc1 (stereo not drawn),"inconclusive [inhibitor, single point]",
Cc1nc2ccn(Cc3ccco3)c(=O)c2cc1C(=O)NCc1ccc(Cl)cc1,"inconclusive [inhibitor, partial curve, poor fit]",
COc1ccc(C2CC(=O)c3cc(-c4nc(-c5cccc([N+](=O)[O-])c5)cs4)c(=O)n(-c4ccccc4N)c3C2)cc1 (stereo not drawn),,inactive: 12.2%
CCOC(=O)N1CCN(S(=O)(=O)c2ccc(Br)s2)CC1,"inconclusive [inhibitor, single point]",
COc1cccc(/C=c2\s/c(=C/C(=O)c3ccc(C)cc3)[nH]c2=O)c1OC,,inactive: 25.7%
COc1ccc(/C=C2\SC(=S)N(CCC(=O)Nc3ccc(C(=O)O)cc3)C2=O)cc1,,inactive: 5.68%
Cc1ccc(OCC(=O)N/N=C\c2c(C)[nH]n(-c3ccccc3)c2=O)c([N+](=O)[O-])c1,"inconclusive [inhibitor, single point]",
Cc1cc(C)n(CCC(=O)N2CCN(S(=O)(=O)c3ccccc3)CC2)n1,,inactive: -8.56%
